# Experimental data published in article PMC6430800, “Ubiquitination of MAP1LC3B by pVHL is associated with autophagy and cell death in renal cell carcinoma” (Cell Death & Disease, 2019).
# B1: His-VHL-Y98H (natural protein)
# chain: not shown
# notes: von Hippel-Lindau protein (VHL) with the LIR motif point mutation Y98H; source: E. coli BL21 (DE3), purified (Ni-NTA)
# Target: Flag-LC3B wild type (F; 1-125 amino acids) (human, UniProt Q9GZQ8)
# Experiment: pull-down + co-IP; in vitro binding assay; 1 µg of each purified protein incubated at 4 °C overnight, immunoprecipitated with an anti-Flag antibody or pulled down with Ni-NTA resin; western blot
# Settings: both partners purified
binder,measurement,value
B1,binding result,binds
